PubChem BioAssay AID1963576 (National Center for Advancing Translational Sciences (NCATS), 2024)
About 60 (0.1%) of roughly 46,000 compounds were called active. Another 3% or so got no clear call; they are omitted. The call rests on the fitted dose curve; in most records, active means well fitted inhibition curve with a large enough effect; inconclusive means small, poorly fitted or top-dose-only effect; inactive means no such curve, though single readings can be large or run the other way. Some of the results follow.

Assay: Primary qHTS assay for Inhibitors of ovarian cancer metastasis using an organotypic tumor microenvironment (TME) model. Further: nearly all actives have a fitted effect of over 65% in size.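 On activity change, negative = inhibition: plate controls were DMSO wells for no effect and tomatine positive control wells for full effect.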
Conditions: SKOV3ip1-GFP adhesion/invasion on 3D omental model, fluorescence; series mostly up to 45.8 µM; activity change, negative = inhibition: at the top concentration
Procedure, shortened: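 Primary human omental fibroblast/mesothelial 3D culture pre-formed 48 h. SKOV3ip1-GFP cells added with compounds (0.36-46 umol/L), incubated 2 h RT/16 h 37 C, fixed; GFP cells quantified at 488/509 nm.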

Question: With Cc1ccc2ccc3cc(C(=O)Nc4ccc(C)c(F)c4)nc3c2[nH]1 as the compound, how does the “activity change, negative = inhibition” value read?
Answer: inactive: -5.97%

Question: For O=C(Cc1ccc(F)cc1)Nc1cccc(-c2nc3cccnc3s2)c1, which “activity change, negative = inhibition” value is on record?
Answer: inactive: -2.66%

Question: For O=C(NCC(c1cccnc1)N1CCc2ccccc2C1)C(=O)Nc1cccc(Cl)c1 (stereo not drawn), which “activity change, negative = inhibition” value is on record?
Answer: inactive: 6.87%

Question: For Cn1c(=O)n(C)c2cc(N3CCOCC3)c(NS(=O)(=O)c3ccc(Br)cc3)cc21, which “activity change, negative = inhibition” value is on record?
Answer: inactive: 3.87%

Question: For Cc1cccc(N2CCN(C(=O)CCCn3ncn4c(cc5occc54)c3=O)CC2)c1C, which “outcome” value is on record?
Answer: inactive

Question: With CCc1ccc(NC(=O)CCc2c(C)n(C)c3cc(-c4ccccc4C)nn3c2=O)cc1 as the compound, how does the “activity change, negative = inhibition” value read?
Answer: inactive: -5.68%

Question: With Cc1ccc(CCNS(=O)(=O)c2ccc3c(c2)CCN3C(=O)CCC(=O)O)cc1 as the compound, how does the “activity change, negative = inhibition” value read?
Answer: inactive: 0.314%

Question: For COc1cccc(N=C2SC(C(=O)Nc3cccc(Cl)c3)CC(=O)N2C)c1 (stereo not drawn), which “activity change, negative = inhibition” value is on record?
Answer: inactive: 6.39%

Question: For CCOC(=O)c1cnc2c(ccc3ccccc32)c1Nc1ccc(OC)cc1OC, which “activity change, negative = inhibition” value is on record?
Answer: inactive: -8.88%

Question: For COc1ccc(N2CCN(C(=O)CCc3c(C)nc4cc(-c5cccc(F)c5)nn4c3C)CC2)cc1, which “activity change, negative = inhibition” value is on record?
Answer: inactive: 1.71%

Question: Which “activity change, negative = inhibition” value does the source give for Cc1ccccc1C(=O)N1CCCCC1CCN1CCCCC1 (stereo not drawn) here?
Answer: inactive: -2.37%

Question: With Cc1ccc(/C=C/c2nc3ccccc3n2S(=O)(=O)c2ccc(Br)cc2)cc1 as the compound, how does the “outcome” value read?
Answer: inactive

Question: Which “activity change, negative = inhibition” value does the source give for CC(=O)N1CCc2c(sc3c2c(=O)n(-c2ccccc2)c(=O)n3Cc2cccc(C(F)(F)F)c2)C1 here?
Answer: inactive: 42.4%

Question: For COc1ccc(C)cc1NC(=O)c1oc2ccc(S(=O)(=O)N3CCOCC3)cc2c1C, which “activity change, negative = inhibition” value is on record?
Answer: inactive: 8.81%

Question: Which “activity change, negative = inhibition” value does the source give for CSc1cccc(NC(=O)CC(c2ccc(F)cc2)N2Cc3ccccc3C2=O)c1 (stereo not drawn) here?
Answer: inactive: -6.31%

Question: Which “activity change, negative = inhibition” value does the source give for COc1ccc(OC)c(NC(=O)CSC2=Nc3ccccc3C3=NC(CCC(=O)NC4CCCCC4)C(=O)N23)c1 (stereo not drawn) here?
Answer: inactive: 15.5%

Question: With COC(=O)c1c(NC(=O)COc2ccc(Cl)cc2C)sc2c1CCCCC2 as the compound, how does the “outcome” value read?
Answer: inactive

Question: With COc1ccc(C(=O)c2c(N)c(-c3nc(-c4ccccc4)cs3)c3ccccn23)cc1 as the compound, how does the “activity change, negative = inhibition” value read?
Answer: inactive: -3.19%

Question: Which “activity change, negative = inhibition” value does the source give for CSc1ncc(C(=O)N2CCN(c3ccc(Cl)cc3)CC2)c(C)n1 here?
Answer: inactive: 14.2%

Question: For CCc1nn(CC(=O)NCCCN2CCN(C)CC2)c(=O)c2cc3occc3n12, which “outcome” value is on record?
Answer: inactive

Question: With COc1ccc(C2=C(C(C)=O)Sc3nnc(-c4ccccc4)n3N2C(C)=O)cc1 as the compound, how does the “activity change, negative = inhibition” value read?
Answer: inactive: -9.97%

Question: Which “activity change, negative = inhibition” value does the source give for CC(=O)NCCNC(=O)c1ccc2c(=O)n(CCc3ccccc3)c(=O)[nH]c2c1 here?
Answer: inactive: 5.85%

Question: For Cc1ccc(-n2nc(C)c3c(C)c(CCC(=O)NCc4ccccc4Cl)c(C)nc32)cc1, which “activity change, negative = inhibition” value is on record?
Answer: inactive: 1.42%

Question: Which “activity change, negative = inhibition” value does the source give for CCOc1ccccc1NC(=O)c1ccc(C(=O)Nc2ccccc2OCC)cc1 here?
Answer: inactive: 3.76%

Question: With O=C(Cn1c(=O)n(Cc2ccco2)c(=O)c2sc3ccccc3c21)Nc1ccccc1C(F)(F)F as the compound, how does the “outcome” value read?
Answer: inactive

Question: For Cc1nc2nc(C)c(CCC(=O)NCc3cccc(Cl)c3)c(C)n2n1, which “outcome” value is on record?
Answer: inactive

Question: For CCOc1cc(C2NC(=O)c3c(sc4c3CCN(C)C4)N2)ccc1OC(=O)c1ccc(F)cc1 (stereo not drawn), which “activity change, negative = inhibition” value is on record?
Answer: inactive: 1.27%

Question: With COc1cc(NC(=O)c2cc3cc4cc(OC)ccc4nc3o2)cc(OC)c1 as the compound, how does the “activity change, negative = inhibition” value read?
Answer: inactive: -6.32%

Question: Which “outcome” value does the source give for Fc1ccc(Cc2cn3cc(-c4ccc(F)cc4)nc3s2)cc1 here?
Answer: inactive

Question: For Cc1cccc(OCC(=O)Nc2cccc(-c3nc4ccccc4s3)c2)c1, which “outcome” value is on record?
Answer: inactive

Question: Which “activity change, negative = inhibition” value does the source give for CC(=O)c1cc(-c2ccc(F)cc2)n(CCC(=O)NC2CCCCC2)c1C here?
Answer: inactive: 12%

Question: Which “activity change, negative = inhibition” value does the source give for COC(=O)c1ccccc1NC(=O)CCc1c(C)nc2cc(-c3ccc(Cl)cc3)nn2c1C here?
Answer: inactive: 3.69%

Question: For O=C(Nc1ccc(F)cc1F)c1cc(-c2ccc3c(c2)OCO3)on1, which “activity change, negative = inhibition” value is on record?
Answer: inactive: 3.77%

Question: For COC(=O)c1sc2ccccc2c1S(=O)(=O)N1CCN(c2ccc(C(C)=O)cc2)CC1, which “activity change, negative = inhibition” value is on record?
Answer: inactive: -5.74%

Question: Which “outcome” value does the source give for Cc1ccc(-n2nc(CO)c(C(=O)NC(C)c3ccccc3)n2)cc1C (stereo not drawn) here?
Answer: inactive

Question: With Cc1ccc(CCNC(=O)c2ccc(CSc3nc4ccncc4n3Cc3ccc(F)cc3)cc2)cc1 as the compound, how does the “activity change, negative = inhibition” value read?
Answer: inactive: 3.41%

Question: Which “activity change, negative = inhibition” value does the source give for CCC(C(=O)NCCc1ccc(SC)cc1)n1nc(C)c2c(C)n(-c3ccc(C)cc3)nc2c1=O (stereo not drawn) here?
Answer: inactive: -6.6%

Question: For COc1cc(C2CC(=O)N(CC(=O)Nc3ccccc3F)c3ccccc3S2)cc(OC)c1OC (stereo not drawn), which “outcome” value is on record?
Answer: inactive

Question: Which “activity change, negative = inhibition” value does the source give for O=C(Nc1ccc(F)c(F)c1)c1ccc(F)c(S(=O)(=O)N2CCC3(CC2)OCCO3)c1 here?
Answer: inactive: 3.99%

Question: For COc1cccc(CNCc2c(C(=O)O)c(C)n(Cc3ccc(F)cc3Cl)c2C)c1OC, which “activity change, negative = inhibition” value is on record?
Answer: inactive: -5.13%

Question: Which “outcome” value does the source give for CCSc1nc2sc3c(c2c(=O)n1-c1ccc(C)cc1)CCCC3 here?
Answer: inactive

Question: With O=C(CC1N=C2c3ccccc3N=C(SCc3cccc(F)c3)N2C1=O)NC1CCCCC1 (stereo not drawn) as the compound, how does the “activity change, negative = inhibition” value read?
Answer: inactive: -6.88%

Question: Which “activity change, negative = inhibition” value does the source give for O=S(=O)(Nc1cccc(-c2ccc(N3CCCCC3)nn2)c1)c1ccc(F)cc1F here?
Answer: inactive: -6.71%

Question: With CC(C)CNc1cc(NC2CCCCC2)c2c3c(onc13)-c1ccccc1C2=O as the compound, how does the “activity change, negative = inhibition” value read?
Answer: inactive: -2.21%

Question: With Cc1ccc(Cl)cc1N1CCN(C(=O)c2cn(C)c3ccc(S(=O)(=O)N4CCCCC4)cc3c2=O)CC1 as the compound, how does the “activity change, negative = inhibition” value read?
Answer: inactive: -7.03%

Question: For COc1ccc2cc3c(N)nn(C(=O)c4ccc(F)cc4Cl)c3nc2c1, which “outcome” value is on record?
Answer: inactive

Question: For CC(C)(C)c1cc(NC(=O)Nc2ccc(-c3cn4c(n3)sc3cc(OCCN5CCOCC5)ccc34)cc2)no1, which “activity change, negative = inhibition” value is on record?
Answer: inactive: -24.7%

Question: Which “activity change, negative = inhibition” value does the source give for COc1ccc(NC(=O)CSc2c(C(C)C)cnc3c2c(=O)n(C)c(=O)n3C)c(OC)c1 here?
Answer: inactive: 2.41%
